Measured values published in patent US20250243260A1 (ALPINE IMMUNE SCIENCES, published 2025).
Numbering of substitutions follows the chain as printed. In names and notes the source's numbering stands. Each block holds one binder with its values, some of them ahead of it.

Experiments:
[1] = biological target: T1, human CD28 (endogenously expressed on primary human T cells) (human, UniProt P10747 19-220); test: flow cytometry, primary human T cells
T1 construct: whole, on cells

human PD-L1 = biological target: T2, human PD-L1 (human, UniProt Q9NZQ7); test: flow cytometry, SCC152/PD-L1 cells
human PD-L1, sequence (Q9NZQ7 19-290): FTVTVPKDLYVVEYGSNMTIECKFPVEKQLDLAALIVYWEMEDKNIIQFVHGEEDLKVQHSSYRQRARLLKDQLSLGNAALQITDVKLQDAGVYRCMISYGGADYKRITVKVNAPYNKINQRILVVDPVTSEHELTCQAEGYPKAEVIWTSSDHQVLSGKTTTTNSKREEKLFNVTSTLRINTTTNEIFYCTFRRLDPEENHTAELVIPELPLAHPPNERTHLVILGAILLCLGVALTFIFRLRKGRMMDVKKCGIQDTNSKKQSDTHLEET
T2 construct: whole, on cells; also called SCC152/PD-L1 cells
Experimental: Binding affinity to CD28 was determined using primary human T cells which endogenously express CD28. Binding to PD-L1 was determined using SCC152 cells transduced with human PD-L1. Binding to CTLA-4 was measured using Chinese hamster ovary (CHO) cells stably transduced to express human CTLA-4.
For staining and analysis by flow cytometry, 75,000 human T cells, SCC152/PD-L1 cells, or CHO/CTLA-4 cells were plated in 96-well round-bottom plates. Cells were spun down and resuspended in staining buffer (PBS (phosphate buffered saline), 1% BSA (bovine serum albumin), 1 mM EDTA, and 0.1% sodium azide) for 20 minutes to block non-specific binding. Afterwards, cells were centrifuged, stain buffer aspirated, and then resuspended in 50 μL of a 1:5 serial dilution of each CD80-Fc candidate variant starting at 100 nM ending at 0.8 nM. Primary staining was performed on ice for 60 minutes, before washing cells in […] staining buffer three times. PE-conjugated anti-human Fc (Jackson ImmunoResearch, USA) was diluted 1:250 in 50 μL staining buffer and added to cells and incubated another 30 minutes at 4° C. Cells were washed two times in 150 μL stain buffer and then fixed in 2% formaldehyde/PBS for 5 minutes at room temperature. Samples were analyzed CytoFLEX LX flow cytometer (Beckman Coulter, USA). Median Fluorescence Intensity (MFI) was calculated for each cell type using the CytExpert software from Beckman Coulter.

MFI (anti-human Fc) at 0.8 nM [1]: 264 MFI
MFI (anti-human Fc) at 4 nM [1]: 479 MFI
MFI (anti-human Fc) at 20 nM [1]: 1180 MFI
MFI (anti-human Fc) at 100 nM [1]: 3110 MFI
fold change of MFI vs WT CD80 at 20 nM [1]: 6.6 fold
B1: CD80_239-Fc, consensus variant CD80 IgV-Fc V11Y/T28Y/D46E/M47V (Fc fusion)
chain: VIHVTKEVKEYATLSCGHNVSVEELAQYRIYWQKEKKMVLTMMSGEVNIWPEYKNRTIFDITNNLSIVILALRPSDEGTYECVVLKYEKDAFKREHLAEVTLSVKADGSGGGGS[omitted - human IgG4 Fc with S228P (EU numbers)]
notes: variant IgV - GSGGGGS - human IgG4 Fc (S228P)

MFI (anti-human Fc) at 0.8 nM [1]: 255 MFI
MFI (anti-human Fc) at 4 nM [1]: 403 MFI
MFI (anti-human Fc) at 20 nM [1]: 757 MFI
MFI (anti-human Fc) at 100 nM [1]: 980 MFI
fold change of MFI vs WT CD80 at 20 nM [1]: 4.2 fold
B2: CD80_242-Fc, consensus variant CD80 IgV-Fc V11F/T28Y/M47L/T62S (Fc fusion)
chain: B1 chain with Y11F, E46D, V47L, T62S
notes: as for B1

Anti-Human Fc (MFI) at 0.8 nM (human PD-L1): 1000 MFI
Anti-Human Fc (MFI) at 4 nM (human PD-L1): 1830 MFI
Anti-Human Fc (MFI) at 20 nM (human PD-L1): 4200 MFI
Anti-Human Fc (MFI) at 100 nM (human PD-L1): 6570 MFI
fold change vs WT CD80 @20 nM (human PD-L1): 6.2 fold
B3: CD80_180-Fc (Fc fusion)
chain: B1 chain with E10G, Y11W, E46D, V47L
notes: also called E10G, V11W, T28Y, M47L

Anti-Human Fc (MFI) at 0.8 nM (human PD-L1): 1010 MFI
Anti-Human Fc (MFI) at 4 nM (human PD-L1): 1960 MFI
Anti-Human Fc (MFI) at 20 nM (human PD-L1): 3490 MFI
Anti-Human Fc (MFI) at 100 nM (human PD-L1): 3630 MFI
fold change vs WT CD80 @20 nM (human PD-L1): 5.1 fold
B4: CD80_165-Fc (Fc fusion)
chain: B1 chain with Y28T, E46D, F59S, L85E
notes: also called V11Y, M47V, F59S, L85E

Anti-Human Fc (MFI) at 0.8 nM (human PD-L1): 1570 MFI
Anti-Human Fc (MFI) at 4 nM (human PD-L1): 2490 MFI
Anti-Human Fc (MFI) at 20 nM (human PD-L1): 2970 MFI
Anti-Human Fc (MFI) at 100 nM (human PD-L1): 3320 MFI
fold change vs WT CD80 @20 nM (human PD-L1): 4.3 fold
B5: CD80_176-Fc (Fc fusion)
chain: B1 chain with E10R, Y11V, H18Y, A26G, Y28T, E35D, E46D, V47M, V68L, L85E
notes: also called E10R, H18Y, A26G, E35D, V68L, L85E

Anti-Human Fc (MFI) at 0.8 nM (human PD-L1): 2830 MFI
Anti-Human Fc (MFI) at 4 nM (human PD-L1): 5700 MFI
Anti-Human Fc (MFI) at 20 nM (human PD-L1): 6850 MFI
Anti-Human Fc (MFI) at 100 nM (human PD-L1): 6770 MFI
fold change vs WT CD80 @20 nM (human PD-L1): 10 fold
B6: CD80_175-Fc (Fc fusion)
chain: B1 chain with E10S, Y11F, E46D, V47L, T62S
notes: also called E10S, V11F, T28Y, M47L, T62S

MFI (anti-human Fc) at 0.8 nM [1]: 401 MFI
MFI (anti-human Fc) at 4 nM [1]: 873 MFI
MFI (anti-human Fc) at 20 nM [1]: 1990 MFI
MFI (anti-human Fc) at 100 nM [1]: 3030 MFI
fold change of MFI vs WT CD80 at 20 nM [1]: 11.1 fold
B7: CD80_243-Fc, consensus variant CD80 IgV-Fc V11Y/M47L/A71G/Y87R (Fc fusion)
chain: B1 chain with Y28T, E46D, V47L, A71G, Y87R
notes: as for B1

Anti-Human Fc (MFI) at 0.8 nM (human PD-L1): 677 MFI
Anti-Human Fc (MFI) at 4 nM (human PD-L1): 803 MFI
Anti-Human Fc (MFI) at 20 nM (human PD-L1): 1090 MFI
Anti-Human Fc (MFI) at 100 nM (human PD-L1): 1690 MFI
fold change vs WT CD80 @20 nM (human PD-L1): 1.6 fold
B8: CD80_172-Fc (Fc fusion)
chain: B1 chain with K9R, E10S, Y28T, M42L, E46D, V47M, F59M, V68M, L85E
notes: also called K9R, E10S, V11Y, M42L, F59M, V68M, L85E

MFI (anti-human Fc) at 0.8 nM [1]: 267 MFI
MFI (anti-human Fc) at 4 nM [1]: 486 MFI
MFI (anti-human Fc) at 20 nM [1]: 965 MFI
MFI (anti-human Fc) at 100 nM [1]: 1560 MFI
fold change of MFI vs WT CD80 at 20 nM [1]: 5.4 fold
B9: CD80_241-Fc, consensus variant CD80 IgV-Fc E10S/V11F/T28Y/M47L (Fc fusion)
chain: B1 chain with E10S, Y11F, E46D, V47L
notes: as for B1

MFI (anti-human Fc) at 0.8 nM [1]: 542 MFI
MFI (anti-human Fc) at 4 nM [1]: 1230 MFI
MFI (anti-human Fc) at 20 nM [1]: 2140 MFI
MFI (anti-human Fc) at 100 nM [1]: 2760 MFI
fold change of MFI vs WT CD80 at 20 nM [1]: 11.9 fold
B10: CD80_240-Fc, consensus variant CD80 IgV-Fc V11Y/T28Y/D46E/M47V/V68M (Fc fusion)
chain: B1 chain with V68M
notes: as for B1

Anti-Human Fc (MFI) at 0.8 nM (human PD-L1): 627 MFI
Anti-Human Fc (MFI) at 4 nM (human PD-L1): 653 MFI
Anti-Human Fc (MFI) at 20 nM (human PD-L1): 692 MFI
Anti-Human Fc (MFI) at 100 nM (human PD-L1): 738 MFI
fold change vs WT CD80 @20 nM (human PD-L1): 1 fold
B11: CD80_171-Fc (Fc fusion)
chain: B1 chain with E7S, Y11V, H18I, V20L, A26K, Y28T, E46D, V47L, A71N
notes: also called E7S, H18I, V20L, A26K, M47L, A71N

Anti-Human Fc (MFI) at 0.8 nM (human PD-L1): 635 MFI
Anti-Human Fc (MFI) at 4 nM (human PD-L1): 629 MFI
Anti-Human Fc (MFI) at 20 nM (human PD-L1): 627 MFI
Anti-Human Fc (MFI) at 100 nM (human PD-L1): 633 MFI
fold change vs WT CD80 @20 nM (human PD-L1): 0.9 fold
B12: CD80_166-Fc (Fc fusion)
chain: B1 chain with Y28T, E46D, L85E
notes: also called V11Y, M47V, L85E

Anti-Human Fc (MFI) at 0.8 nM (human PD-L1): 786 MFI
Anti-Human Fc (MFI) at 4 nM (human PD-L1): 999 MFI
Anti-Human Fc (MFI) at 20 nM (human PD-L1): 1660 MFI
Anti-Human Fc (MFI) at 100 nM (human PD-L1): 3230 MFI
fold change vs WT CD80 @20 nM (human PD-L1): 2.4 fold
B13: CD80_179-Fc (Fc fusion)
chain: B1 chain with Y11V, H18F, Y28T, M42G, E46D, V47M, F59Y, V68N
notes: also called H18F, M42G, F59Y, V68N

Anti-Human Fc (MFI) at 0.8 nM (human PD-L1): 780 MFI
Anti-Human Fc (MFI) at 4 nM (human PD-L1): 1024 MFI
Anti-Human Fc (MFI) at 20 nM (human PD-L1): 1650 MFI
Anti-Human Fc (MFI) at 100 nM (human PD-L1): 3250 MFI
fold change vs WT CD80 @20 nM (human PD-L1): 2.4 fold
B14: CD80_178-Fc (Fc fusion)
chain: B1 chain with E46D, V47M, L85E, Y87I
notes: also called V11Y, T28Y, L85E, Y87I
